The whole screen tested about 360,000 compounds, of which about 6,000 (1.7%) were called active. Inconclusive means that the source gave no clear call. Such entries were picked first, then a sample of the others. Calls come from the whole dose curve; as a rule, active = well fitted cell-killing curve with a large enough effect; inconclusive = small, poorly fitted or top-dose-only effect, or effect the other way; inactive = flat fitted curve, though single readings scatter. Potencies of inconclusive entries are left out as doubtful fits.
Experiment: qHTS for induction of synthetic lethality in tumor cells producing 2HG: qHTS for the HT-1080-NT fibrosarcoma cell line;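 note: NT is the 2HG producing partner of a matched IDH1 knockdown line; nearly all actives have a fitted effect of over 55% in size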;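 for activity, negative = less viability: 0% = DMSO-treated cells and -100% = media-only wells without cells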
Details: HT-1080-NT fibrosarcoma viability, CellTiter-Glo ATP luminescence, 48 h; activity, negative = less viability: at 46.1 µM (top of the series) unless noted
Method in brief: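 Fibrosarcoma NT cells, 750 per well in 5% FBS RPMI, were exposed to compound for 48 hours. Viability: CellTiter-Glo luminescence.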
Potency is the fitted concentration of half-maximal effect; tags give direction and shape of the fitted curve.

Q: For `O=C(C[C@H]1CC[C@@H]2[C@H](COC[C@@H](O)CN2Cc2ccc(Cl)cc2)O1)NCCc1ccccc1`, which “activity, negative = less viability” value is on record?
A: The value was inactive: -1.93%.

Q: For `Cc1cc(C)nc(NC(=NCCc2c[nH]c3ccccc23)NC(=O)Nc2ccc(Cl)cc2)n1`, which “activity, negative = less viability” value is on record?
A: Its value is inactive: -12.8%.

Q: With `CSC1=NCCCN1C(=O)c1c(-c2ccccc2Cl)noc1C` as the compound, how does the “activity, negative = less viability” value read?
A: Its value is inactive: 9.5%.

Q: With `COc1ccc(NC(=O)CN2CCN(Cc3ccccc3)CC2)cc1` as the compound, how does the “activity, negative = less viability” value read?
A: Its value is inactive: 4.77%.

Q: Which “activity, negative = less viability” value does the source give for `Cc1ccc(OCC2Cn3c(nc4c3c(=O)[nH]c(=O)n4C)O2)cc1C` (configuration not stated) here?
A: Its value is inactive: 0.912%.

Q: For `O=C(NN=C1C2CC3CC(C2)CC1C3)c1cccc(S(=O)(=O)N2CCOCC2)c1`, which Potency is on record?
A: The Potency was inconclusive [rising, single point].

Q: With `CN(C)c1ccc(/C=C/c2c([N+](=O)[O-])c(=O)n(C)c(=O)n2C)cc1` as the compound, how does the “activity, negative = less viability” value read?
A: Its value is inactive: -3.47%.

Q: Which Potency does the source give for `O=C(NC1CCN(C(=O)N2c3ccccc3Sc3ccccc32)CC1)c1ccco1` here?
A: Its Potency is inconclusive [cytotoxic, partial curve].

Q: For `CC(C)CNC(=O)c1ccccc1NC(=O)c1ccccc1N(C)S(=O)(=O)c1ccccc1`, which “activity, negative = less viability” value is on record?
A: Its value is inactive: -2.09%.

Q: For `Cc1nnc(Sc2nc3c(c(=O)n(C)c(=O)n3C)n2Cc2ccc(Cl)cc2)s1`, which “activity, negative = less viability” value is on record?
A: Its value is inactive: 7.8%.

Q: Which Potency does the source give for `Cc1cc2cc(C#N)c(NCCNC(=S)NCCCN3CCOCC3)nc2cc1C` here?
A: Its Potency is inconclusive [cytotoxic, single point].

Q: With `Cc1cc(O)ccc1-c1cc(C(=O)NCc2cc(C(F)(F)F)cc(C(F)(F)F)c2)[nH]n1` as the compound, how does the Potency read?
A: Its Potency is inconclusive [cytotoxic, single point].

Q: Which “activity, negative = less viability” value does the source give for `CCc1ccccc1N1CC23C=CC(O2)C(C(=O)O)C3C1=O` (configuration not stated) here?
A: Its value is inactive: 13%.

Q: For `CCOc1ccc(C(=O)Nc2cnn(Cc3ccc(Cl)c(Cl)c3)c2)cc1`, which Potency is on record?
A: Its Potency is inconclusive [cytotoxic, full curve, poor fit].

Q: For `Cc1cc(C)n2[nH]c(=O)cc2n1`, which “activity, negative = less viability” value is on record?
A: Its value is inactive: 10.3%.

Q: Which Potency does the source give for `CCOc1ccc(/C=C/[N+](=O)[O-])c2ccccc12` here?
A: Its Potency is inconclusive [cytotoxic, single point].

Q: For `Cc1cccc2cc(CN(Cc3ccco3)C(=O)Nc3cccc(C#N)c3)c(Cl)nc12`, which Potency is on record?
A: Its Potency is inconclusive [cytotoxic, single point].

Q: With `CC1CN(CCCCOc2ccc(Cl)c3ccccc23)CC(C)O1` (configuration not stated) as the compound, how does the Potency read?
A: Its Potency is active: 20.6 µM.

Q: Which Potency does the source give for `Fc1c(F)c(F)c(/C=N/NC(=S)Nc2cccnc2)c(F)c1F` here?
A: The Potency was inconclusive [cytotoxic, single point].

Q: Which “activity, negative = less viability” value does the source give for `COc1cc2nc(N3CCCN(C)CC3)nc(N3CCN(C)CC3)c2cc1OC` here?
A: The value was inactive: -14.2%.

Q: For `COc1ccc(C2=CC(=O)C[C@H](c3ccc(Cl)cc3)C2)cc1`, which Potency is on record?
A: The Potency was inconclusive [cytotoxic, single point].

Q: For `Nc1cccc2c1C(=O)N(C(=O)c1ccco1)C2=O`, which Potency is on record?
A: Its Potency is inconclusive [rising, single point].

Q: With `CC(C)CNC(CC(=O)O)c1ccccc1` (configuration not stated) as the compound, how does the Potency read?
A: Its Potency is inconclusive [rising, partial curve].

Q: Which Potency does the source give for `CC(C)(C)CC(=O)NC(=S)NCCc1ccccc1` here?
A: Its Potency is inconclusive [cytotoxic, single point].

Q: Which Potency does the source give for `O=C(c1ccc([N+](=O)[O-])cc1)N1CCc2ccccc2C1` here?
A: Its Potency is inconclusive [rising, full curve].

Q: With `Cc1cc(C)c2cc(CN(Cc3nnnn3C3CCCCC3)CC3CCCO3)c(=O)[nH]c2c1` (configuration not stated) as the compound, how does the Potency read?
A: The Potency was inconclusive [cytotoxic, single point].

Q: Which Potency does the source give for `CCCCCCCCN1C(=O)[C@H](CC(=O)N2CCN(C(=O)OCC)CC2)C[C@@]2(C(=O)OC)CCCCC=C12` here?
A: The Potency was inconclusive [cytotoxic, single point].

Q: With `CC(C)c1nc(-c2ccccc2)c(-c2ccccc2)[nH]1` as the compound, how does the “activity, negative = less viability” value read?
A: The value was inactive: -15.7%.

Q: With `C[C@H](CO)N1C[C@H](C)[C@H](CN(C)C(=O)Nc2ccc(C(F)(F)F)cc2)OCc2cnnn2CCCC1=O` as the compound, how does the “activity, negative = less viability” value read?
A: Its value is inactive: 0.784%.

Q: Which Potency does the source give for `CC(C)C[C@H](CO)N(Cc1ccccc1)S(=O)(=O)N(Cc1ccccc1)[C@@H](CO)CC(C)C` here?
A: The Potency was inconclusive [cytotoxic, single point].

Q: Which “activity, negative = less viability” value does the source give for `O=C(COc1ccccc1)N=C1SC2CS(=O)(=O)CC2N1c1ccc(F)cc1F` (configuration not stated) here?
A: Its value is inactive: -0.196%.

Q: For `O=C(Nc1ccc(F)cc1)Nc1cc(OCC(F)(F)F)cc(OCC(F)(F)F)c1`, which Potency is on record?
A: Its Potency is active: 7.31 µM.

Q: For `CC(=O)Oc1ccc(N(c2ccccc2)S(=O)(=O)c2ccc(C)cc2)cc1`, which “activity, negative = less viability” value is on record?
A: Its value is inactive: -8.74%.

Q: For `CNC(=O)c1ccc(NC(=O)CC2SC(N3CCCC3)=NC2=O)cc1` (configuration not stated), which “activity, negative = less viability” value is on record?
A: The value was inactive: 12.5%.

Q: For `COc1cc(NCCCCC(C)N)c2nccc(C)c2c1` (configuration not stated), which Potency is on record?
A: The Potency was inconclusive [cytotoxic, single point].

Q: For `Cc1cc(NC(=O)c2cc(-c3ccccn3)nc3ccccc23)no1`, which “activity, negative = less viability” value is on record?
A: Its value is inactive: -3.59%.

Q: Which Potency does the source give for `C=CC[C@@H](CC(=O)N[C@@H](CO)Cc1ccccc1)C(=O)N[C@H](COC(=O)[C@H](CC=C)CC(=O)OC(C)(C)C)Cc1c[nH]c2ccccc12` here?
A: The Potency was inconclusive [cytotoxic, single point].

Q: With `CN(C)CCCN(C(=O)c1ccc(S(=O)(=O)N2CCCCCC2)cc1)c1nc2ccc(Br)cc2s1` as the compound, how does the Potency read?
A: Its Potency is active: 18.4 µM.

Q: For `CCOc1ccc(-n2cnnn2)cc1S(=O)(=O)N1CCCCC1`, which activity, negative = less viability is on record?
A: The activity, negative = less viability was inconclusive: -18.8% [cytotoxic].

Q: With `C[C@H]1CN([C@@H](C)CO)C(=O)CCCn2nncc2CO[C@H]1CN(C)S(=O)(=O)c1ccc(C#N)cc1` as the compound, how does the “activity, negative = less viability” value read?
A: Its value is inactive: -1.6%.

Q: With `CN(C)C(=O)c1cc(C(=O)c2ccc(F)cc2C(F)(F)F)c[nH]1` as the compound, how does the “activity, negative = less viability” value read?
A: Its value is inactive: -12.9%.

Q: For `COCc1ccc(C(=O)N2CCCC(CCC(=O)NCc3ccccc3F)C2)o1` (configuration not stated), which Potency is on record?
A: Its Potency is active: 14.6 µM.

Q: Which Potency does the source give for `CCN(CC)c1ccc(/C=N/NC(=O)CNC(=O)C2COc3ccccc3O2)c(O)c1` (configuration not stated) here?
A: The Potency was inconclusive [cytotoxic, full curve].

Q: With `O=S1(=O)CC/C(=N\Nc2ccccc2)c2ccsc21` as the compound, how does the Potency read?
A: The Potency was inconclusive [cytotoxic, single point].

Q: Which “activity, negative = less viability” value does the source give for `CCCc1cc2c(OC(=O)CC)c(-c3ccc(C(=O)OCC)o3)c(=O)oc2cc1OC` here?
A: The value was inactive: -5.12%.

Q: With `CCCCOc1ccc(C(=O)N/N=C/c2cn[nH]c2-c2ccc(OC)c(OC)c2)cc1` as the compound, how does the Potency read?
A: Its Potency is inconclusive [cytotoxic, single point].

Q: Which Potency does the source give for `CCc1cc2c(COC(=O)c3cccc(S(C)(=O)=O)c3)cc(=O)oc2cc1O` here?
A: Its Potency is inconclusive [cytotoxic, partial curve].
